The other results are listed elsewhere or left out.
Each compound was assayed on T1, C. trachomatis L2/434/Bu expressing GFP (CTL2-GFP). Details: total inclusion area; 28.5 h, 10 µM; inhibitor.
T1 construct: L2/434/Bu GFP intracellular growth in HeLa cells
Design: species or system HeLa; C. trachomatis total inclusion area by high-content imaging, normalised to DMSO
Outline: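 Following bulk GFP and resorufin fluorescence reads, infected cells were fixed, Hoechst-stained and imaged on a high-content platform. Inclusion total area and number per well served as growth proxies; nuclei counts indicated host viability. MICs were derived as for the fluorescence assay.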

| Compound | % of control remaining |
| --- | --- |
| COc1ccc(CC(=O)N2CCCC(c3cccc(Cc4cccc(C)c4)n3)C2)cc1 (stereo not shown) [CBK286498] | 69.6811 |
| O=C(CN1CCCCC1)NCCNc1ccc([N+](=O)[O-])cc1Cl [CBK264922] | 103.599 |
| Cc1nc2c(c(=O)[nH]1)CCN(Cc1cc(C)n(C3CC3)c1C)C2 [CBK282338] | 86.4958 |
| Cn1ncc2c1CCCN(C(=O)c1ccccc1C(F)(F)F)C2 [CBK282251] | 110.395 |
| Nc1nc2n(c1C(=O)c1ccc(Cl)cc1)CCC2 [CBK288194] | 87.6334 |
| FC(F)(F)c1ccc(Oc2ccc(-c3noc(-c4cccnc4)n3)cc2)nc1 [CBK270166] | 102.526 |
| O=C(Nc1ccc(OC(F)F)cc1)Nc1c(Br)cnc2cccnc12 [CBK107632] | 92.391 |
| O=C(c1ccc2[nH]ccc2c1)N1CCN(c2ncccn2)CC1 [CBK144500] | 83.0344 |
| O=C(Cc1ccc(NS(=O)(=O)c2cc(Cl)c(Cl)s2)nc1)N1CCOCC1 [CBK003790] | 100.367 |
| CS(=O)(=O)N1CC2(CCN(C(=O)N(CCN)CCc3ccc(Cl)cc3)CC2)c2ccccc21 [CBK001687C] | 58.4489 |
| Cn1cc(Nc2nc(-c3ccc4c(c3)CCCN4S(C)(=O)=O)cs2)cn1 [CBK306236] | 62.9389 |
| O=C(NCCc1c[nH]c2ccccc12)c1cc2c(ccc3ccccc32)oc1=O [CBK264550] | 103.352 |
| Cc1cc(NS(=O)(=O)c2cccc3nsnc23)n(C)n1 [CBK067246] | 102.661 |
| O=C(c1ccc2occc2c1)N1CCCC2(CCN(Cc3ccccc3)C2)C1 (stereo not shown) [CBK136882] | 97.332 |
| CCNC(=S)NNC(=O)CCn1c2ccccc2c2ccccc21 [CBK262564] | 92.5484 |
| COc1ccc(Cl)cc1N1CCN(CCCCC2NC(=O)NC2=O)CC1 (stereo not shown) [CBK126448] | 106.332 |
| Cc1n[nH]cc1CN(CCCn1ccnc1)Cc1cccc(F)c1 [CBK282650] | 108.164 |
| CC(C)Cc1cc(CNC(=O)Nc2cc(-c3cccnc3)nn2C)no1 [CBK307048] | 66.7725 |
| OCCN1CCN(Cc2nc(O)c3ccccc3n2)CC1 [CBK266089] | 131.275 |
| CC(=O)Nc1sc(/C(C#N)=C/c2cccc(Oc3ccccc3)c2)nc1-c1ccc(C)cc1 [CBK264895] | 90.3379 |
| Cc1cc(C(=O)N2CCC3(C/C=C/CCOc4ccccc4C(=O)NCCCNC3=O)CC2)no1 [CBK292155] | 99.0811 |
| COCC(=O)N1CCCC(c2nc(C)n3c(C)csc23)C1 (stereo not shown) [CBK285214] | 94.7041 |
| CCn1cc(NC(=O)CCn2c(C(F)F)cc3cccnc32)cn1 [CBK282769] | 97.9585 |
| CCN(CC)CC/N=C1/CCCc2ccccc2N1 [CBK263520] | 86.9674 |
| O=C(Nc1ccc2c(c1)CS(=O)(=O)C2)c1cccs1 [CBK057563] | 99.6411 |
| COc1ccc(CCNC(=O)C2CCCN(S(=O)(=O)c3ccc4ccccc4c3)C2)cc1 (stereo not shown) [CBK269601] | 90.3006 |

| Compound | % of control remaining |
| --- | --- |
| CCC(CO)Nc1cncc(-c2ccccc2CO)n1 (stereo not shown) [CBK065775] | 101.457 |
| CCOc1ccc(NCc2ccccc2NS(=O)(=O)c2ccc(C)cc2)cc1 [CBK056876] | 81.0288 |
| COc1ccccc1CNc1ccc(S(N)(=O)=O)cc1 [CBK288476] | 53.4609 |
| Cc1ccnc(NCC2CCN(CC(=O)Nc3cc(C)no3)C2)c1 (stereo not shown) [CBK306121] | 104.333 |
| CCC1CCCCN1C(=O)c1ccc(C)c(OC)c1 (stereo not shown) [CBK081557] | 93.5586 |
| O=C(C1CCCC1)N1C[C@@H]2CCCCN(Cc3cccnc3)[C@@H]2C1 [CBK285492] | 106.607 |
| CC(=O)N[C@H](Cc1c[nH]c2ccccc12)C(=O)N1CCN(c2ccc(C(F)(F)F)cc2)CC1 [CBK091314] | 91.3719 |
| CC(C)Nc1cc(SCc2ccc(F)cc2)ncn1 [CBK107158] | 93.5747 |
| O=C(COc1ccc(S(=O)(=O)N2CCc3ccccc32)cc1Cl)NCc1ccco1 [CBK268293] | 101.167 |
| COc1cc2c(cc1NC(=O)CSc1nc3ccccc3[nH]1)oc1ccccc12 [CBK265153] | 134.217 |
| O=C(NCCN1CCc2ccccc2C1)C1CCCCC1 [CBK305049] | 65.3109 |
| Cn1cc(-c2ncc(OCCn3cccc3)nc2N)cn1 [CBK145170] | 105.124 |
| Nc1ncc(-c2cccc3cccnc23)nc1N1CCOCC1 [CBK063383] | 87.9002 |
| c1ccc(-c2cn3ccnc3c(NCC3CCOCC3)n2)cc1 [CBK037356] | 132.575 |
| O=c1[nH]cc(-c2ccccc2)cc1CNCC1Cc2ccccc2O1 (stereo not shown) [CBK284772] | 92.2169 |
| O=C(O)CSc1nc2ccc([N+](=O)[O-])cc2s1 [CBK262232] | 89.0038 |
| COc1ccc(OC)c(NC(=O)c2c(NCc3ccncc3)sc3c2CCC3)c1 [CBK266007] | 116.482 |
| O=C(Cn1ccc2ccnc(-c3cccs3)c21)N1CCOCC1 [CBK284729] | 115.013 |
| CCC(Sc1nc(C)cc(C)n1)C(=O)N1c2ccccc2Sc2ccccc21 (stereo not shown) [CBK263018] | 78.1956 |
| Cc1ccc([N+](=O)[O-])cc1NC(=O)c1cc(S(=O)(=O)N(C)C)c(Cl)cc1Cl [CBK266764] | 87.4478 |
| Nc1ncnc(NCCC(c2ccccc2)c2ccccc2)c1[N+](=O)[O-] [CBK267294] | 89.9396 |
| Cn1cc(Cl)c(C2CCCCCN2S(=O)(=O)c2ccc3[nH]c(=O)[nH]c(=O)c3c2)n1 (stereo not shown) [CBK286408] | 91.4619 |
| Cc1nc(CCCn2cnc3nccnc3c2=O)sc1C [CBK306962] | 74.922 |
| Cc1cc(C)n(C2CCN(Cc3c(C)nc4ccccn34)CC2)n1 [CBK281614] | 95.6008 |
| Nc1ccc2nc(CCCCCC(=O)O)sc2c1 [CBK016399] | 60.6809 |
| CCCN1CC(NC(=O)c2cc(COc3cccc(F)c3)[nH]n2)CC1=O (stereo not shown) [CBK306912] | 79.4131 |

From article PMC12040169 (PLOS Biology, 2025)
